Reference: the supplement of paper PMC3334620
In all, about 33,000 sequences were measured (“E-score (-0.5 to 0.5)”: median about -0.01, highest 2% from about 0.26 on). The list shows a part of the results.

biological target: Ste12 (UniProt P13574); experiment: PBM E-score (8-mer binding enrichment) (E-score (-0.5 to 0.5)); higher = stronger / more preferred TF binding; most listed sequences are background and not binding sites; conditions: protein concentration: 200 nM; construct: GST-DNA-binding domain
Procedure, shortened: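 Full-length yeast transcription factors or their DNA-binding domains, GST-tagged and expressed with PURExpress, were applied at about 100-200 nM to universal all-10-mer Agilent arrays. These arrays had been made double-stranded by primer extension on fresh or once-stripped slides. Detection used fluorescent anti-GST, normalisation used masliner, and E-scores for ungapped eight-base words pooled with reverse complements came from the Universal PBM Analysis Suite.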

Sequence | PBM E-score
GGCATACC | -0.271
AGTAGTAC | -0.0646
CAATAAGC | 0.0921
CCTGCGTA | -0.149
AACTGTTA | 0.0976
AAGGTTAT | 0.0194
AACCGAGT | -0.206
CAAAGCTG | -0.0285
ACACGTCG | -0.21
GAGTGGCC | -0.137
AATGGTTC | -0.0247
GGCAAAGA | 0.138
GACCGAAC | 0.104
ATGAGACA | 0.338
GCATCGCC | -0.18
AGTGCGTG | -0.0891
CGCAAGCC | 0.0766
ACTTTCCT | -0.0706
GACGGCAA | 0.0517
ATGACTTC | -0.0836
AAGGTAAG | -0.00826
TATGCGCA | -0.196
GTGACTTA | 0.0415
ACGCCTGA | -0.135
CATTTGGC | 7e-05

Sequence | PBM E-score
GGCAGGGA | 0.0949
ACGCGACC | -0.135
CAATCGCG | -0.0142
CCCAATTC | 0.167
AGTAAGGA | 0.048
CGTCGAGC | -0.065
TAACCCAA | 0.182
TCATGGCA | 0.0667
CAATCGAG | -0.109
GAAATGCA | 0.109
GCGCTGCC | -0.179
GCGTGACA | 0.126
CTGCTATA | -0.0198
CCTAAGCA | -0.196
ACCATGTC | 0.00229
CGGTTTTA | 0.189
CATTCCCC | -0.0665
GGAAGTAA | 0.0621
CGCTGGAA | 0.0114
AAGCTCTA | -0.0834
ATCACGGG | 0.0394
CGACGGCA | -0.00442
GGTAATTA | 0.0627
GACATGAC | -0.0572
CCGAATTC | -0.00494

Sequence | PBM E-score
ATAGATAC | 0.0939
GTACACGA | -0.0985
CCGTATGA | -0.0203
TTACTGAA | 0.0569
GACATTCA | 0.0286
AGCAGTCC | -0.293
CGCGCTGA | 0.0713
GAAAAAAA | 0.369
CCGGTTTC | 0.298
AGGCCCTG | -0.235
CTAAGACA | 0.0664
GACAAATC | 0.16
GAAAAGAC | 0.102
CGCCTTAC | -0.0868
TCTGCTCA | -0.0821
CAAAAGGG | -0.115
CCGTACCA | 0.052
ATTACTTA | 0.113
CTTATTTC | 0.157
CGTTACCA | 0.0903
CTAGACGC | -0.206
CTAAAGAG | 0.0426
AACCCGCG | 0.188
AACATGTG | 0.261
CGGTGACA | 0.0734

Sequence | PBM E-score
CATAGCAC | 0.0266
CCCCGACG | -0.0518
CTAAACAG | 0.0203
CATCACTA | -0.118
AAAAGTGC | 0.0185
GAATCATA | 0.0963
CCACCGGG | -0.144
CATTTAAA | 0.277
CCGGTTTA | -0.00824
AGGCCAGA | 0.107
GTCATAAC | 0.0163
GGATTAGA | 0.11
AGATAACG | -0.0951
CACTACGA | -0.0784
GAAGCTGA | -0.0304
GCACCGAC | -0.167
GATTTACA | 0.0155
AGTTTTTG | 0.239
CACTGTAC | -0.287
CATAATGC | -0.0326
ACGTTGCT | -0.0688
GCCTCCCA | -0.104
GAACGACA | 0.015
GGCAGGAC | -0.227
CCGGTCCC | -0.0788

Sequence | PBM E-score
ATTACGAG | 0.0384
CTCTTAGA | -0.134
TCGTCACA | 0.115
AGAAAAAC | 0.146
ACATCATA | 0.151
CCATCCCC | 0.0914
CACATGCG | -0.184
AATTAGCC | -0.0154
AGATTATG | 0.0156
AGCGTGGG | -0.208
AACTTGCA | 0.0129
GCCCCTGA | -0.0535
ACGGTTTG | 0.0815
CGGGATCC | -0.00773
CCGTGAAA | 0.129
CTTTACTA | 0.0971
CCTCTTCA | 0.0526
ATAAGTAA | 0.123
GTGAGCCA | -0.0733
ATAAATAA | 0.266
CAATGGAA | 0.0433
ACAGGCCC | 0.0896
AACTAAAT | 0.188
AATCACCA | 0.0129
CCACTTTC | 0.0181

Sequence | PBM E-score
CAGCCCAA | -0.0109
CCCACTGC | -0.0833
GGCCACGA | -0.00594
TAGCTCCA | -0.074
CGAACCGA | -0.0902
AGTGGCGG | 0.00523
TCGTGCCA | -0.051
TCGGCCAA | -0.0251
CGAATGGC | 0.109
CAGGGACG | -0.0549
CACTAGCA | -0.146
AGATACGA | 0.125
ATGGGCTG | -0.202
GTAACGAC | -0.053
CATTCTTC | -0.119
TACCAAAA | 0.204
GAGCCAGA | -0.0414
GAGAGCCC | -0.384
ACAGTCTG | -0.111
CCGTCAAA | 0.0523
GATTTGAA | 0.129
TCGCCCGA | -0.105
CGGATAGC | -0.161
ACTAAGGA | -0.129
TACTCAGA | 0.0273

Sequence | PBM E-score
ATTAGAGC | 0.0484
ACATCGAT | 0.0247
GACACGCC | -0.0148
AGCTGGTA | -0.132
CTCAGTCA | 0.0212
GGAAATTA | 0.0595
CTGACTGC | -0.146
GTGGAGGA | -0.0464
CTAGGCAC | -0.156
GTACCTCA | -0.173
GCCTGATA | -0.066
AAAGGAAG | 0.131
CTCGCGAA | -0.0542
ACATACCG | -0.117
AGCATCAT | -0.131
AGCTCGCA | -0.121
GACCACTC | -0.0235
TACGATAA | 0.0619
CAAATTTC | 0.139
AACTCGCT | 0.0734
ATCTGCAG | -0.069
GCAGCTAA | -0.0419
